Laboratory results published in paper PMC6212790.
The list shows a part of the results. At the low end of the ranking the order means little.

Target: T1, GST-Rok (full length) (UniProt O34857)
T1 sequence: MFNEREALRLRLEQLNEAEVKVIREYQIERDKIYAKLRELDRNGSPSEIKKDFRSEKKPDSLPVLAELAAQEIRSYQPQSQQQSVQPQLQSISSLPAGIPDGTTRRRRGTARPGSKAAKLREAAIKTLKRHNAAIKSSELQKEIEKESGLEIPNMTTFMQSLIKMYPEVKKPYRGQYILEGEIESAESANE
Assay: protein binding microarray;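 also: rank score from −0.5 (least bound) to 0.5 (best bound)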
Conditions: Rok is a gene silencer of Bacillus subtilis; high values mean tight binding; most listed sequences are background and not binding sites; double strand, one strand shown

| Sequence | binding signal [E-score] |
| --- | --- |
| GTTTCCAA | 0.0167 |
| AATAGGTC | 0.0929 |
| AACGGAAT | 0.105 |
| AAATAGCC | 0.046 |
| GACCGGGA | -0.108 |
| GGTTCTGA | -0.0282 |
| GGTTAATA | 0.19 |
| CTGCGTGA | 0.0471 |
| ACCGTCCA | -0.0837 |
| ACGTTGTA | 0.206 |
| AACCTGAG | -0.0585 |
| CGCGGCGA | -0.233 |
| GAACAGTC | -0.0967 |
| CTCTAAAG | -0.164 |
| ACACTCAC | 0.0332 |
| ATACCCGG | -0.0173 |
| AGATGAAC | 0.165 |
| GGATATTA | 0.161 |
| GAAATACA | 0.184 |
| AGGCTGCG | -0.255 |
| GAGCGACC | -0.147 |
| TCTGGGCA | -0.121 |
| GTTAAATA | 0.312 |
| GGGTGTAA | -0.0569 |
| AGGAGCCT | -0.345 |

| Sequence | binding signal [E-score] |
| --- | --- |
| CCCAAACC | -0.181 |
| ACAAACTC | 0.155 |
| ACTGATTA | 0.208 |
| ATGATGTA | 0.227 |
| CTACGGCC | -0.112 |
| GTCCTCTA | -0.305 |
| GCAAGGGC | -0.263 |
| ATGAAATA | 0.216 |
| AGGAGTTC | -0.0915 |
| ACGCGCTA | 0.188 |
| ACTTGCGC | 0.13 |
| CGATACCC | -0.231 |
| CGACCCAC | 0.0766 |
| AAGGGGCT | -0.489 |
| AGTGAGAC | -0.0988 |
| GAAAGCGC | -0.187 |
| ACCCCGAG | -0.327 |
| CCGTAAAC | 0.0136 |
| ATACCAGA | 0.0105 |
| CTGGGAAG | -0.169 |
| ATGATACG | 0.0857 |
| GCTTGAAA | 0.0577 |
| ATAGTAGG | 0.289 |
| CTGTGAAG | -0.0881 |
| CCGCACGC | -0.251 |

| Sequence | binding signal [E-score] |
| --- | --- |
| ATAGCATC | 0.191 |
| CTAACTAA | 0.29 |
| ACGGGTAC | 0.00633 |
| ATGCGTCC | -0.0272 |
| ACCCAACG | 0.0103 |
| ATCCCCAC | -0.383 |
| ATCTCATG | 0.183 |
| AGAATTAT | 0.245 |
| GTCCCAAA | -0.167 |
| GGACCCAA | -0.313 |
| GCGTAAGA | 0.0335 |
| CTTGCGGA | -0.0954 |
| GGACTCCA | -0.19 |
| CCGCTCAA | -0.185 |
| AGAGCCAG | -0.196 |
| GGACTTGA | -0.0412 |
| GATACATC | 0.186 |
| GAACGATA | 0.236 |
| GCTCCGCA | -0.2 |
| ACACAGCT | -0.0133 |
| CCGGTTCA | -0.174 |
| CCTAGTGC | -0.0964 |
| AGTACGAG | 0.0692 |
| CCTAGAGC | -0.0531 |
| ATCGCGAT | 0.287 |

| Sequence | binding signal [E-score] |
| --- | --- |
| CACGATCC | -0.0502 |
| CGCATGGC | -0.286 |
| GGTCTAGA | -0.0272 |
| CAACACGG | 0.0643 |
| GGGCCTCA | -0.215 |
| ATTTAAGA | -0.00721 |
| AGATCATA | 0.165 |
| ATGTCTGG | -0.215 |
| CGCCCTCA | -0.342 |
| AACAACAT | 0.0889 |
| AATTACTA | 0.434 |
| CCCTCGGC | -0.336 |
| GATTGAGA | -0.0925 |
| GAGAGGGC | -0.42 |
| CTGTTTGC | -0.272 |
| ACGTTCGC | -0.0889 |
| ATAAGAAT | 0.244 |
| GTCAACGA | -0.0371 |
| CGTACGCC | 0.0878 |
| ACGCGCAT | -0.0825 |
| CGCCTCTA | -0.131 |
| AAGGTGTG | -0.104 |
| CGGCATCC | -0.302 |
| AGACCTTC | -0.169 |
| GGTTTGAC | -0.136 |

| Sequence | binding signal [E-score] |
| --- | --- |
| AGAACCTC | -0.138 |
| AAGTTGAC | 0.0694 |
| CGGAAAAA | -0.052 |
| GGTGCGAC | -0.248 |
| CCCGGCCC | -0.387 |
| GGCTCATA | -0.336 |
| AGTTGTGC | 0.157 |
| GGCGCTTA | -0.109 |
| GGCATCTA | -0.0204 |
| TACGCACA | 0.21 |
| AGTAACAC | 0.281 |
| CTTTTACA | 0.0852 |
| TCAACTCA | -0.0186 |
| AAGTAGCC | 0.14 |
| CAGTCACG | -0.0672 |
| CAATGCGC | 0.0244 |
| GTTAAAAA | 0.127 |
| CTGCTGCA | 0.019 |
| AGCCAAAA | 0.0252 |
| CCACCCTC | -0.266 |
| AATACTAG | 0.341 |
| AGCCGATC | -0.154 |
| AGAAAGGC | -0.0301 |
| GCTGCCCA | 0.0246 |
| ATTAGGTC | 0.0813 |

| Sequence | binding signal [E-score] |
| --- | --- |
| TATACCGA | 0.215 |
| ATCAGAAA | 0.0773 |
| CATGGCAA | -0.0187 |
| ACGAGTCC | -0.192 |
| AGGGCGGC | -0.355 |
| TACGGGAA | 0.124 |
| AGAGTGGA | -0.109 |
| GGACTGAC | -0.299 |
| CGGTATTC | 0.245 |
| CCGTGCCC | -0.325 |
| CATCGCAG | -0.277 |
| GCCCTTGA | -0.391 |
| CACGACTG | -0.0627 |
| AACCAGCA | -0.00149 |
| TACGGTAA | 0.315 |
| CAACCTCA | 0.0127 |
| GATGGGGA | -0.176 |
| CGTACCCA | -0.00953 |
| CGCTGTCA | -0.125 |
| AATATACC | 0.394 |
| GTAAACTA | 0.351 |
| ACTCGTCG | -0.043 |
| CTTCATCC | -0.154 |
| ATTCGTAC | 0.135 |
| CGCCGGAA | -0.0419 |

| Sequence | binding signal [E-score] |
| --- | --- |
| CTGATAAA | 0.0763 |
| AATTTAGT | 0.163 |
| CAGGCATA | 0.0553 |
| GCGATCCC | -0.257 |
| AACTGTGG | -0.041 |
| TGCGGGAA | -0.19 |
| TCGAAGCA | -0.0477 |
| CACGAGGC | -0.2 |
| AACGGTAG | 0.276 |
| AGGAATCC | -0.168 |
| AGGTTGGC | -0.0479 |
| AGCACTAG | 0.0456 |
| GGATCCTA | 0.0769 |
| AGACCCCG | -0.383 |
| TTGGCAAA | -0.0481 |
| AGTCAGCC | -0.00495 |
| ATTCCTAC | 0.201 |
| CGTATATA | 0.28 |
| AAAGGTGG | -0.19 |
| AAACCTCG | -0.0155 |
| GCGCGGTA | 0.073 |
| CATTAACC | 0.0213 |
